Laboratory results reported in article PMC6168263 (The Journal of Cell Biology, 2018).

What was measured:
[1] = molecular target: the molecule itself; assay: negative-stain single-particle EM
MBP-Hof1-FL-6His = molecular target: T1, MBP-Hof1-FL-6His (S. cerevisiae, UniProt Q05080 1-669); assay: negative-stain single-particle EM
T1 sequence (looked up): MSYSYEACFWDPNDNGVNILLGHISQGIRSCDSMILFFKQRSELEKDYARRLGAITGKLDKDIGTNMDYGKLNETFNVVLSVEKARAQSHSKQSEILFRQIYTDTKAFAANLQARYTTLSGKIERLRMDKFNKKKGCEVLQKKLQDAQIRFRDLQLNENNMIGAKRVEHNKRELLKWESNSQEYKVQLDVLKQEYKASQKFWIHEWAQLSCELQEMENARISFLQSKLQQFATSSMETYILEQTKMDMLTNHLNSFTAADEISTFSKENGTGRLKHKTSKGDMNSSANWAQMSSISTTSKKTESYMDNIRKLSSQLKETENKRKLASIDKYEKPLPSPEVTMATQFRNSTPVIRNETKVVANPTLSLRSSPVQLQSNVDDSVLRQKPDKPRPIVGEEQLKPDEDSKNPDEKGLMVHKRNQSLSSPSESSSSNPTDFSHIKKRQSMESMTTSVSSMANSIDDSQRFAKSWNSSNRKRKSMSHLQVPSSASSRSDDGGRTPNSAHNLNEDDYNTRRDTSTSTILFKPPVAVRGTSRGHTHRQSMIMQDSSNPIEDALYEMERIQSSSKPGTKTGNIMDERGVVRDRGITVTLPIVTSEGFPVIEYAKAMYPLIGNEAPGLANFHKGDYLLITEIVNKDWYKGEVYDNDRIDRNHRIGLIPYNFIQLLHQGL

- binding result (MBP-Hof1-FL-6His): binds
B1: 6His-Bnr1 FH1-FH2-C (residues 757-1,375) (domain or fragment)
chain: not shown
- stoichiometry N [1]: 2
